# The whole screen tested about 360,000 compounds, of which about 740 (0.21%) were called active. Inconclusive results, whose numbers are uncertain, are shown with a selection of clear calls. Calls come from the whole dose curve; as a rule, active = well fitted inhibition curve with a large enough effect; inconclusive = small, poorly fitted or top-dose-only effect; inactive = no such curve, though single readings can be large or run the other way. No potency is given beside an inconclusive call; the fits are too rough.
# Test system: Plasmodium falciparum AMA1 (3D7) - RON2 peptide interaction
# Assay: qHTS for Inhibitors of AMA1-RON; Towards Development of Antimalarial Drug Lead: Primary Screen; note: nearly all actives have a fitted effect of over 45% in size;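 for activity change, negative = inhibition: 0% = vehicle wells and -100% = peptide control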
# Settings: AlphaScreen AMA1-biotinylated RON2 peptide binding; activity change, negative = inhibition: at 58.2 µM (top of the series) unless noted
# In short: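 AMA1 (3D7) with his tag at 25 nM final met compounds first, then biotinylated RON2 peptide at 25 nM; detection used donor plus acceptor beads, 10 µg/mL apiece, read by AlphaScreen after 30 min at room temperature.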
# Potency is the fitted concentration of half-maximal effect; tags give direction and shape of the fitted curve.
Compound,Potency,"activity change, negative = inhibition"
CN(C)c1ccc(CN2CCC(C(N)=O)CC2)cc1,"inconclusive [inhibitor, single point]",
Nc1[nH]n(-c2ccccc2)c(=O)c1N=Nc1ccccc1,"inconclusive [inhibitor, partial curve]",
O=C(Nc1ccccc1)C1=C[C@@H](c2ccccc2)C[C@@H](OCc2ccc(CO)cc2)O1,,inactive: 10.3%
COc1cc(NC(=S)NC(C)=O)ccc1NC(=O)C(C)C,,inactive: -4.67%
Cc1ccc(Cn2ncc3c(N4CCN(c5ccc(C)cc5)CC4)ncnc32)cc1,"inconclusive [inhibitor, full curve, poor fit]",
Cc1ccc(C)c(Nc2c([N+](=O)[O-])ccc3nonc23)c1,"inconclusive [inhibitor, full curve]",
Cc1nc(C)c(C(=O)Nc2cccc(C)c2C)s1,"inconclusive [inhibitor, single point]",
CCCCNC(C(=O)Nc1ccc([N+](=O)[O-])cc1Br)c1ccccc1 (configuration not stated),"inconclusive [inhibitor, single point]",
CC(C)(C)c1ccc(OCCCn2ccnc2)cc1,"inconclusive [inhibitor, single point]",
Cc1ccc2cc(CCNC(=O)c3cccc([N+](=O)[O-])c3)c(=O)[nH]c2c1C,,inactive: 0.775%
CCOC(=O)c1cnc2ccccc2c1NCCc1ccc(OC)c(OC)c1,,inconclusive: -14.3% [inhibitor]
O=C(CNC(=O)c1ccccc1F)NCc1ccncc1,"inconclusive [inhibitor, single point]",
Oc1ccc2ccccc2c1C1Nc2cccc3cccc(c23)N1,"inconclusive [inhibitor, partial curve]",
Cc1cccc(OCc2nc(-c3ccccn3)n[nH]2)c1,"inconclusive [inhibitor, single point]",
Fc1ccc(Cn2cccc2C2=NC(c3ccccc3)CO2)cc1 (configuration not stated),"inconclusive [inhibitor, partial curve]",
Cc1ccc(CNC(=O)c2ccc(N3CCc4ccccc43)c([N+](=O)[O-])c2)cc1,"inconclusive [inhibitor, partial curve]",
COc1ccc(NC(=O)c2ccccc2)c([N+](=O)[O-])c1,,inactive: -24.4%
CCOC(=O)N1CCN(CC(O)COc2ccc(C)cc2C(C)(C)C)CC1 (configuration not stated),,inactive: 7.36%
COc1ccc(CN2CCCC(C(=O)Nc3cccc(-n4cccn4)c3)C2)cc1 (configuration not stated),,inactive: -12.4%
COc1ccc(CC(N)c2csc(Nc3nncc4ccccc34)n2)cc1 (configuration not stated),,inactive: 81.9%
Cc1sc2ncnc(OCC(=O)Nc3ccc4c(c3)OCCO4)c2c1C,"inconclusive [inhibitor, single point]",
CC(C)N1CCCC(CNC(=O)CCc2nnc(CCCCc3ccccc3)o2)C1 (configuration not stated),,inactive: 11.5%
Cc1cc2c(cc1C)N(C(=O)CN1C(=O)c3ccccc3C1=O)C(C)(C)c1ssc(=S)c1-2,"inconclusive [inhibitor, partial curve]",
COC(=O)C1=C(c2ccc(F)cc2OCc2ccccc2)C[C@@H]2CC[C@H]1N2C(=O)NCCOc1ccccc1,,inactive: -6.01%

Compound,Potency,"activity change, negative = inhibition"
COc1ccc(C)cc1NC(=O)COC(=O)c1ccc([N+](=O)[O-])o1,,inactive: 6.37%
Cc1cc(OC(=O)c2cccc(Cl)c2)c([N+](=O)[O-])c(=O)[nH]1,"inconclusive [inhibitor, partial curve]",
CC(C)COc1ccc(CNC(=S)Nc2ccccc2)cc1Cl,,inactive: 77.9%
CCOc1ccccc1N1CCN(C2=C(NS(=O)(=O)c3cccs3)C(=O)c3ccccc3C2=O)CC1,active: 10 µM,
O=C(NCCC1CCCCN1S(=O)(=O)c1ccc(F)cc1)C(=O)NCCN1CCOCC1 (configuration not stated),,inactive: 8.34%
O=C(NCc1ccccc1)C(c1ccco1)N(C(=O)c1ccccn1)c1ccccc1 (configuration not stated),,inactive: 3.36%
COc1ccc2sc(-c3ccc(N(C)C)cc3)c(C#Cc3cncn3C)c2c1,"inconclusive [inhibitor, single point]",
O=C(CCNC(=O)c1ccc([N+](=O)[O-])cc1)NCc1cccs1,,inactive: -6.68%
O=[N+]([O-])c1ccccc1C=NNc1ccccc1,"inconclusive [inhibitor, single point]",
O=C(c1ccc([N+](=O)[O-])s1)N1CCN(c2cccc(Cl)c2)CC1,"inconclusive [inhibitor, single point]",
CN(C)c1ccc(C=c2c3ccccc3n3c2cc(-c2ccc(Cl)cc2)[n+]3C)cc1,active: 17.8 µM,
CCCC1O[C@@H]2CC3C4CCC5=CC(=O)C=C[C@]5(C)C4C(OC(C)=O)C[C@]3(C)[C@]2(C(=O)COC(C)=O)O1 (some centres not stated),,inactive: -2%
CC(=O)c1cccc(N2C(=O)Nc3ccccc3N2O)c1,"inconclusive [inhibitor, full curve]",
COc1cccc(CNc2ccc3[nH]c(=O)[nH]c3c2)c1OCc1ccccc1F,"inconclusive [inhibitor, partial curve, poor fit]",
CC(=O)N1CCC(N(C(=O)Nc2ccc(C)c(C)c2)C2CCCC2)CC1,"inconclusive [inhibitor, single point]",
COC(=O)c1ccc(C(=O)O)nc1,,inactive: -26.3%
CCCCc1ccc(-c2nn[nH]n2)nc1,"inconclusive [inhibitor, single point]",
COc1ccccc1-c1cc2c(c3c1ccn3C)C1CCC2C1 (configuration not stated),"inconclusive [inhibitor, single point]",
O=C(O)CCn1c(SCCc2ccccc2)nc2ccccc21,"inconclusive [inhibitor, partial curve]",
CCOC(=O)c1ccc2ncc(C(=O)OCC)c(Nc3ccc(N4CCOCC4)cc3)c2c1,"inconclusive [inhibitor, full curve]",
COc1ccc(Cl)cc1NC(=O)COC(=O)CCNC(C)=O,,inconclusive: -8.38% [inhibitor]
COc1cc(C(=S)N2CCOCC2)cc(OC)c1OC(=O)c1ccccc1[N+](=O)[O-],"inconclusive [inhibitor, single point]",
CC(C)C(OC(=O)c1cccc(S(=O)(=O)NCC(F)(F)F)c1)C(=O)NC(N)=O (configuration not stated),,inactive: -2.73%
COc1ccc(-c2cc3c(c4c2ccn4C)C2CCC3O2)cc1OC (configuration not stated),"inconclusive [inhibitor, single point]",

Compound,Potency,"activity change, negative = inhibition"
O=C(Nc1nc2ccccc2s1)c1cc(-c2ccco2)nc2ccccc12,"inconclusive [inhibitor, full curve, poor fit]",
CCOC(=O)c1ccc(CNCc2ccc(Br)cc2)cc1,"inconclusive [inhibitor, full curve, poor fit]",
CN(C)c1ccc(-c2nnc(SCC3CCCO3)n2C)cc1 (configuration not stated),,inactive: 23.3%
CCCCCCCN(c1ccccc1)[C@@H]1C[C@H]2CCCC(=O)N3CC[C@@H](C1)[C@@H]23,"inconclusive [inhibitor, partial curve]",
COc1ccc(-c2nc(C#N)c(N3CCN(c4ccccc4)CC3)o2)cc1,"inconclusive [inhibitor, partial curve]",
COC[C@H]1CCCN1[C@@H]1CS(=O)(=O)N[C@H]1COCc1ccccc1,,inactive: 8.08%
CC(C)Cn1c(-c2ccc(Cl)cc2)cnc1SCC(=O)N1CCOCC1,"inconclusive [inhibitor, single point]",
COc1ccccc1CNC(=O)CN(c1ccc(C)cc1)S(=O)(=O)c1c(C)nn(C)c1C,,inactive: -4.62%
O=[N+]([O-])c1cccc(CN2CCN(Cc3ccco3)CC2)c1,"inconclusive [inhibitor, single point]",
CC(C)c1ccccc1NC(=O)CNCCOc1ccccc1F,"inconclusive [inhibitor, partial curve]",
CC(C)C(C)NC(=O)CSc1nc2scc(-c3ccco3)c2c(=O)n1-c1ccccc1 (configuration not stated),,inactive: -2.57%
CCN(CC)c1nc(N(CC)CC)[nH]c(=O)n1,"inconclusive [inhibitor, single point]",
CC1CCN(S(=O)(=O)c2ccc3c(c2)N(CC(=O)NCCN2C(C)CCCC2C)C(=O)CS3)CC1 (configuration not stated),,inactive: -9.84%
COc1ccc(/C=N/NC(=O)c2ccc(O)cc2)cc1CN1CCCc2ccccc21,"inconclusive [inhibitor, partial curve]",
Cc1ccc(C(=O)Nc2ncc(Cc3ccc(F)cc3)s2)o1,,inactive: 0.568%
COc1cccc(C(=O)NNc2c3ccccc3nc3ccccc23)c1,"inconclusive [inhibitor, single point]",
CSc1nc(C)cc(Oc2ccc(=O)[nH]n2)n1,,inactive: -5.38%
COc1ccccc1-c1cccc2nccn12,,inactive: -10.1%
COc1cccc(=O)c2c(C)n(C)c(C)c12,"inconclusive [inhibitor, partial curve]",
O=C(c1c[nH]cc1-c1ccccc1)c1cccc2ccccc12,"inconclusive [inhibitor, partial curve]",
COc1ccc(CCc2nnc(CCC(=O)NCc3cc(C(C)C)no3)o2)cc1,"inconclusive [inhibitor, single point]",
CC(C)(C)c1ccc(OCc2ccc(C(=O)N/N=C/c3ccc(O)c(O)c3)cc2)cc1,,inactive: 11.7%
Cc1cc(N2CCN(c3ccc(F)cc3)CC2)nc2cc(O)ccc12,"inconclusive [inhibitor, single point]",
Cc1cc(Oc2cc(NN3CCCCC3)c([N+](=O)[O-])cc2[N+](=O)[O-])c(C(=O)c2ccccc2)cc1Cl,"inconclusive [inhibitor, full curve]",
